Reference: publication PMC4336329 (PLoS ONE, 2015)
Screen size: about 310,000 compounds; about 14,000 (4.5%) showed an effect of 50% or more. Effects have a minus sign here. The list shows a part of the results.

These compounds were tested against human ether-à-go-go-related gene (hERG) potassium channel (human, UniProt Q12809) (assay: primary screen, population patch clamp on CHO cells stably expressing hERG).
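Further: peak tail current of the secondary pulse compared with the same well before compound.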

Sequence of human ether-à-go-go-related gene (hERG) potassium channel (Q12809 whole entry, looked up): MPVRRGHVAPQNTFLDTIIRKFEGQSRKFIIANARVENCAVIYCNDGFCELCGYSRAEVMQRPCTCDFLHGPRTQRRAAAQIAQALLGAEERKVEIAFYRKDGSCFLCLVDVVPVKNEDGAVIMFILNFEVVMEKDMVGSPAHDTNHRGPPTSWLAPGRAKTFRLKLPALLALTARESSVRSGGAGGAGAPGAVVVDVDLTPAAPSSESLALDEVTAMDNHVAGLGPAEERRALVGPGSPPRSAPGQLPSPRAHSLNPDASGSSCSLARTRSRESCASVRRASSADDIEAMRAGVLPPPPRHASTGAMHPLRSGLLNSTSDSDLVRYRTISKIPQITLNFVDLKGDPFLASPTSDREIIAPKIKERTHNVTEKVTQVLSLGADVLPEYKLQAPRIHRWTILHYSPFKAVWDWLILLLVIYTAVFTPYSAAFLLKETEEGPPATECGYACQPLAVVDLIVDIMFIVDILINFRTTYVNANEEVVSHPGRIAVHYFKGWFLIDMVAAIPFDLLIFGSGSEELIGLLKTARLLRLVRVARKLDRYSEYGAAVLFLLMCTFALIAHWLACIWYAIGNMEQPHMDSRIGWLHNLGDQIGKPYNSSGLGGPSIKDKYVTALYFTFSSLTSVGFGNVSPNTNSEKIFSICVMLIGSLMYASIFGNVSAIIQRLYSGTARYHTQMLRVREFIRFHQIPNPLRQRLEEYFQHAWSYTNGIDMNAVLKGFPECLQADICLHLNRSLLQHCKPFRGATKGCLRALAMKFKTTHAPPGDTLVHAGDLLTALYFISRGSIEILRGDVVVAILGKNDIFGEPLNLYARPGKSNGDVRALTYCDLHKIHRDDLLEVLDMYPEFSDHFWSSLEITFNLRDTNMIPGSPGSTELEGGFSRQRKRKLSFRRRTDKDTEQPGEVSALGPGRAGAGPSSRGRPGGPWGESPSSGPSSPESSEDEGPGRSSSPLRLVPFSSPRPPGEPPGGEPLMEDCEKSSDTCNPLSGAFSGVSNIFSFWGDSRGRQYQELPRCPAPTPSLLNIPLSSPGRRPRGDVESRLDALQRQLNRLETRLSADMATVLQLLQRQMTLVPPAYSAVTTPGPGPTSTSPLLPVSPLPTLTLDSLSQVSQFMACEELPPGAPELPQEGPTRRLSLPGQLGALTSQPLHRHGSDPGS

| SMILES | hERG current change (%, negative = inhibition) at 10uM |
| --- | --- |
| Cc1[nH]n(-c2ccccc2)c(=O)c1-c1ccc(Cl)cc1 | 9.3% |
| CCN(CC)C(=O)c1ccc(NC(=O)COc2ccc(-c3nn(C)c(=O)c4ccccc34)cc2)cc1 | 1.52% |
| O=c1c(Cl)c(NCc2ccccc2Cl)cnn1C12CC3CC(CC(C3)C1)C2 | -5.06% |
| Cc1cc(C)n(C(=O)Cn2nc(C)c(Cl)c2C)n1 | -1.61% |
| CC12OC1C1(O)CCCC1=CC2=O (centres unmarked) | 8.66% |
| N#Cc1cnn2c(-c3cccc(C(F)(F)F)c3)ccnc12 | -52.8% |
| O=C(Nc1cccc(S(=O)(=O)N2CCCCCC2)c1)C1CCN(C(=O)c2ccc(Cl)cc2)CC1 | -41.9% |
| COCc1ccc([C@@H]2C[C@H]3CN(Cc4cccnc4)C(=O)[C@]34CCCN24)o1 | -3.38% |
| COc1ccc(OCC(=O)OCCN(C)C)cc1.Cl | -0.825% |
| CC(=O)Nc1ccc(S(=O)(=O)Nc2nc3ccccc3nc2Nc2ccc(O)c(C(=O)O)c2)cc1 | 15.8% |
| O=C1CC(c2ccco2)CC2=C1C1c3ccccc3C(=O)N1c1ccccc1N2 (centres unmarked) | 1.37% |
| O=C(CN1C(=O)C2CC=CCC2C1=O)Nc1ccc(OC(F)(F)F)cc1 (centres unmarked) | -14.2% |
| CN1C(=O)N(c2ccc(Cl)cc2)C(C)(O)CC1(C)C (centres unmarked) | 5.75% |
| CCc1ccc2[nH]c(=O)c(C(c3nnnn3Cc3ccc(OC)cc3)N3CCOCC3)cc2c1 (centres unmarked) | -19.1% |
| CN(CC(=O)N1CCN(Cc2ccccc2)CC1)C(=O)Cc1cccc2ccccc12 | -19.1% |
| c1ccc(-n2nnnc2NCCCN2CCOCC2)cc1 | 1.4% |
| O=C(NCCO)c1scc2c1OCCO2 | 16.6% |
| CC(C)OP(=O)(OC(C)C)C(O)c1cccnc1 (centres unmarked) | 17.3% |
| COc1cccc(CN2CCN(C(=O)c3ccc(-c4ccccc4)cc3)CC2)c1OC.O=C(O)C(=O)O | -5.41% |
| Fc1ccc(-c2csc(NC(=S)Nc3ccccc3)n2)cc1 | 32.8% |
| CCOc1ccc(C(=O)N/N=C(/C)C2C(=O)c3ccccc3C2=O)cc1 | 9.02% |
| COCCNC(=O)c1onc(CSc2cc(C)cc(C)c2)c1C(=O)NCCOC | -7.73% |

| SMILES | hERG current change (%, negative = inhibition) at 10uM |
| --- | --- |
| COc1cccc(CNC(=O)CCNS(=O)(=O)c2ccc3c(c2)oc(=O)n3C)c1 | 5.43% |
| Cc1cc(C)n(CCNS(=O)(=O)c2ccc(C)c(C)c2)n1 | 11.5% |
| Fc1ccc(C(CCCn2nnc(-c3cccnc3)n2)c2ccc(F)cc2)cc1 | -16.5% |
| CC(OC(=O)Nc1cccc(Cl)c1)C(=O)O (centres unmarked) | 21.2% |
| O=C(/C=C/Nc1ccc(S(=O)(=O)Nc2ncccn2)cc1)c1cccs1 | 4.26% |
| C=CCS(=O)(=O)N1CCCC(C(=O)c2cccc(Cl)c2)C1 (centres unmarked) | 5.16% |
| Cc1ccccc1-c1nc(CN2CCC(C(=O)O)CC2)c(C)o1 | -18.6% |
| CCN(CC)CCN1C(=O)C(=O)/C(=C(/O)c2ccc3c(c2)CC(C)O3)C1c1ccc(OC)cc1 (centres unmarked) | -3.73% |
| Cc1ccc(S(=O)(=O)N(C)C)cc1NC(=O)COC(=O)C1CCN(S(=O)(=O)c2cccs2)CC1 | -81.9% |
| O=C(CSc1nccn1Cc1ccccc1)Nc1ccccc1 | 12.4% |
| CCCc1cc(=O)oc2cc(OCC(=O)NCCCN3CCCC3=O)ccc12 | 0.636% |
| COc1cccc(CN2CCN(Cc3cc(OC)c(OC)cc3OC)CC2)c1.O=C(O)C(=O)O | -29.1% |
| CCN(CC)C(=O)Oc1ccc2c(=O)c(-c3ccccc3)coc2c1 | 0.84% |
| NC(Cc1ccccc1)c1nc(-c2ccccc2)no1 (centres unmarked) | -10.5% |
| Cc1cc(C(C#N)c2ccccc2F)n2ncnc2n1 (centres unmarked) | 2.72% |
| CC(C)OC(=O)CCC(=O)Nc1nc2ccccc2s1 | 5.56% |
| O=C(COC(=O)C1COc2ccccc2O1)Nc1ccc2c(c1)CCC2 (centres unmarked) | 13.6% |
| CCn1c(SCc2cccc(F)c2)nc2c(c1=O)SCC2 | -6.33% |
| CCN1CCN(C(=O)Cn2nc(C)n3c(cc4c(OC)cccc43)c2=O)CC1 | 5.58% |
| COC(=O)C1=C(C)N(C)C(=O)NC1c1ccc(C)cc1 (centres unmarked) | -3.08% |
| COc1ccc(C=Nc2cccc3c(=O)[nH][nH]c(=O)c23)c2ccccc12 | 6.37% |
| COc1ccc(-c2[nH]ncc2/C=C(\C#N)C(=O)NC2CC2)cc1 | -4.57% |
